# Assay results from PubChem BioAssay AID488969 (Vanderbilt High Throughput Screening Facility, 2010).
# Whole data set: some 110,000 compounds, median “z-score” near -0.1, cut for the highest 2% near 2. This is one part of the list. Activity calls are given as the source filed them.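 How the source made its calls: active means z-score in the third read window above 3 or below -3; inactive means the rest.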
# Target: Metabotropic glutamate receptor 8 (Rattus norvegicus) (UniProt P70579)
# Assay: mGluR8 Gi/Go-coupled signaling modulation – cell-based, rat, thallium flux, HTS, primary screen (AID 488969)
# Settings: HEK293 rat mGluR8, GIRK (G protein-gated inwardly rectifying potassium channel) thallium flux, FluoZin2; at 10 µM; stronger effect = higher value; submaximal glutamate (EC20) added with thallium
# Chain of UniProt P70579 (P70579 whole entry, looked up): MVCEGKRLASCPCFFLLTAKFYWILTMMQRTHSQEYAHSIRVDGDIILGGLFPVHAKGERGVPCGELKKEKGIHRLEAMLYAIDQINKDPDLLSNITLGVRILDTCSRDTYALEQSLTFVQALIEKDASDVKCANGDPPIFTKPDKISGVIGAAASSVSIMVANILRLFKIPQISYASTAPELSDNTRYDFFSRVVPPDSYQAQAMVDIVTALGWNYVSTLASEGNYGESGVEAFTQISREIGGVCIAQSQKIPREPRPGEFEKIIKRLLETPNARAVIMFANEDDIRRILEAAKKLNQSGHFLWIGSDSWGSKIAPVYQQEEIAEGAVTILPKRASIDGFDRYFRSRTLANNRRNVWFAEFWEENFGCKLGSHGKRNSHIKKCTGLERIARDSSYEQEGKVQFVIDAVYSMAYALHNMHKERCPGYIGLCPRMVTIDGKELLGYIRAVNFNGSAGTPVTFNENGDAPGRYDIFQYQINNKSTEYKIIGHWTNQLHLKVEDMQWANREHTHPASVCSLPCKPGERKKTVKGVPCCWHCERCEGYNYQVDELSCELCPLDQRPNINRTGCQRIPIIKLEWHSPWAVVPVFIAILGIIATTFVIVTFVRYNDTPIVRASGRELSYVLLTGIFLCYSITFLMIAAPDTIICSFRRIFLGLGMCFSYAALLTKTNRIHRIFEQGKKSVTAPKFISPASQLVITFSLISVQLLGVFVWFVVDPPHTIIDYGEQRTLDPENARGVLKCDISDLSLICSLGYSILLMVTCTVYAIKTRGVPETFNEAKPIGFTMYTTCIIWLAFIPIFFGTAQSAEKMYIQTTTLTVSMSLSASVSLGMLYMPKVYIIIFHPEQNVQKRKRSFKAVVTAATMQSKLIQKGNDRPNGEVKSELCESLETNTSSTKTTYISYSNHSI
row,Structure (SMILES),z-score
1,COC(=O)c1ccc(N2C(=O)CC(N3CCC(O)(c4ccc(Br)cc4)CC3)C2=O)cc1 (stereo not drawn),0.0452
2,COc1ccc(CCNC(=O)c2nnn(-c3cccc(C)c3)c2N)cc1OC,-1.32
3,O=C(Nc1cccc(Cl)c1)N(CCN1CCOCC1)Cc1ccccc1F,-0.654
4,COc1ccc(/C=N/Nc2nonc2N)cc1OC,-0.52
5,CCN(CC)S(=O)(=O)c1ccc2c(c1)nc(CCC(=O)OCC(=O)Nc1cc(OC)cc(OC)c1)n2C,-0.316
6,CC(C)c1cc(C(=O)O)n(-c2ccccc2)n1,-0.019
7,COc1ccc([N+](=O)[O-])cc1NC(=O)C1CCCO1 (stereo not drawn),-0.326
8,CC1=CC(C)(C)Nc2ccc(OC(=O)CN3C(=O)C4CCCCC4C3=O)cc21 (stereo not drawn),1.08
9,COc1ccccc1C(=O)OCc1nc(N)nc(Nc2ccccc2C)n1,-0.14
10,O=C1CC(N2CCN(c3ccc(F)cc3)CC2)C(=O)N1Cc1ccc(N2CCCC2=O)cc1 (stereo not drawn),0.135
11,COc1ccc(/C=N/NC(=S)Nc2ccccc2[N+](=O)[O-])cc1O,1.71
12,O=C1CC(c2ccc(Cl)cc2)CC(O)=C1C=NCCN1CCNCC1 (stereo not drawn),1.62
13,CCN(c1ccccc1)S(=O)(=O)c1ccc(C(=O)Nc2nccs2)cc1,0.0747
14,CCCCOc1ccc(NC(=O)CSc2cccc3cccnc23)cc1,0.468
15,CCN(CCCNC(=O)CN(C)S(=O)(=O)c1cccc2nsnc12)c1cccc(C)c1,-0.213
16,Cc1cc(C)n(-c2ccc(Cl)c(C(=O)O)n2)n1,0.445
17,O=C(NC1CCCC1)C1CCN(S(=O)(=O)N2CCCCC2)CC1,-0.018
18,Oc1oc(-c2ccccc2)nc1C=Nc1ccccc1,-0.937
19,Cc1cccc(-c2nc(CS(=O)CC(=O)N3CCCCC3)c(C)o2)c1 (stereo not drawn),-0.419
20,CCn1ncc(CNC(=O)CCSc2nc(-c3ccco3)cc(C(F)(F)F)n2)c1C,-0.127
21,CC(C)CCNC(=O)NC(=O)CN1C(=O)NC2(CCCCC2)C1=O,0.0574
22,CCc1nnc2c3cnn(-c4ccccc4)c3ncn12,0.421

row,Structure (SMILES),z-score
1,O=C(CSc1nc2cc(Cl)ccc2s1)c1cc2ccccc2o1,1.64
2,CC1(C)CC(=O)c2cnc(NC(=O)CCc3ccccc3)nc2C1,-0.267
3,CCOCCCNC(=O)C(c1ccc(Cl)cc1)N1CCN(C(=O)c2ccco2)CC1 (stereo not drawn),-0.399
4,O=C(COc1cccc(Oc2ccccc2)c1)Nc1ncccn1,-1.72
5,COc1ccc(NC(=O)CCS(=O)(=O)c2ccc3c(c2)CCCN3C(C)=O)cc1,0.847
6,Cc1occc1-c1n[nH]c(=S)n1-c1ccccc1,0.0165
7,Cc1ccc(C)c(NC(=O)CSc2nnc([C@@H]3CCCN3C(=O)OC(C)(C)C)o2)c1,0.531
8,COc1ccc(CNc2oc(COc3ccccc3Cl)nc2C#N)cc1,-0.457
9,COc1ccc(-c2nnc(NC(=O)c3ccc(S(=O)(=O)N4CCc5ccccc5C4)cc3)o2)cc1,active: 9.68
10,Cc1ccccc1NC(=O)CN1C(=O)COc2ccc(Cl)cc21,-0.461
11,CCN(CC)S(=O)(=O)c1cccc(-c2nnc(SCC(=O)c3cc(C)n(C)c3C)o2)c1,-0.404
12,COc1ccccc1NC(=O)Cn1c(CN2CCCCC2)nc2ccccc2c1=O,-0.0646
13,CCOc1ccc(NS(=O)(=O)c2ccc(OCC)c3ncccc23)cc1,-0.466
14,CCCCN1C(=S)SC(C)(C)C1/[N+]([O-])=C/c1cccnc1 (stereo not drawn),-0.00445
15,Cc1ccc(OCCn2c(=O)sc3ccccc32)cc1,-0.193
16,CC(C)[C@H](NC(N)=O)C(=O)Nc1ccc2c(c1)CCC2,0.278
17,Cc1cc(C(=O)COc2cccc3cccnc23)c(C)n1C,1.45
18,COc1cccc(C(=O)NCc2cn3ccsc3n2)c1,active: 15.2
19,CCn1c(/N=C/c2c[nH]c3ccccc23)nc2ccccc21,0.382
20,Cc1cccc(NC(=S)N/N=C/c2c[nH]c3ccccc23)c1,-0.0914
21,C=CCSc1nc2c(sc3nc(C)cc(C)c32)c(=O)[nH]1,-1.32
22,COC(=O)C1=C(C)NC(=O)CC1c1cc(Br)ccc1F (stereo not drawn),-0.0702

row,Structure (SMILES),z-score
1,O=C(Nc1cccnc1)c1c(F)c(F)c(F)c(F)c1F,0.614
2,O=C(NCCc1ccccc1)C(c1cccs1)N(C(=O)CCl)c1ccc(Cl)cc1 (stereo not drawn),-0.168
3,O=C(Nc1ccc(N2CCCCC2)c(C(=O)O)c1)c1ccco1,-0.186
4,O=C(Cc1cccs1)Nc1nc2c(ccc3ccccc32)s1,0.34
5,Cc1ccc(C(=O)NC(=S)N2CCN(c3ccc([N+](=O)[O-])cc3)CC2)cc1,0.426
6,C/C(O)=C(\C#N)c1nc2ccccc2[nH]1,-0.0354
7,O=C(CNCCC1=CCCCC1)Nc1ccc(N2CCCCCC2)cc1,-0.0273
8,Cc1cccc(C)c1OCC(O)CNS(=O)(=O)c1ccccc1C(=O)N1CCCCC1 (stereo not drawn),1.51
9,CON/C=C(\C=Nc1ccc(Cl)cc1)c1ncc(C(F)(F)F)cc1Cl,0.285
10,CCc1nnc(NC(=O)c2ccc(S(=O)(=O)NCC(C)C)cc2)s1,-0.367
11,O=C(CN1C(=O)NC2(CCCCCCC2)C1=O)NCc1cccs1,-0.142
12,CCCNC(=O)CS(=O)Cc1nc(-c2ccc(OC)cc2)oc1C (stereo not drawn),0.1
13,COc1ccccc1CN(Cc1nc2ccccc2c(=O)[nH]1)S(=O)(=O)c1ccc2ccccc2c1,0.217
14,Cc1csc(NC(=O)c2cccc(Cn3nc(C)c(Br)c3C)c2)n1,-0.225
15,N#CC1=C(N)Nc2nc3ccccc3n2C1c1ccc(Cl)cc1 (stereo not drawn),-0.0798
16,COc1ccc(C(=O)NCC(=O)OCC(=O)Nc2cc(OC)ccc2OC)cc1,-0.0485
17,Cc1cccc(N2C(=O)NC3(CCCCC3)C2=O)c1,0.753
18,CCOC(=O)c1sc(NC(=S)NC(=O)c2ccco2)nc1C,active: 7.57
19,CC(=O)c1cccc(NC(=O)c2cnn3ccccc23)c1,-0.0821
20,O=C(NCc1ccco1)c1ccc(C(=O)NCc2ccco2)s1,0.211
21,COc1ccc2[nH]c(=O)c(CN(CC3CCCO3)C(=O)Nc3ccccc3)cc2c1 (stereo not drawn),0.117
22,COc1cc(CNCCN2CCOCC2)ccc1OCc1ccc(Cl)cc1Cl,1.1

row,Structure (SMILES),z-score
1,Cc1ccc(NC(=O)CCN2C(=O)CSC2=O)cc1,-0.108
2,Cc1ccc(-c2nc3sc4c(N)ncnc4c3c3c2CCCC3)cc1,-0.958
3,Cc1nn(C)c(Oc2ccccc2)c1[N+](=O)[O-],-0.158
4,COC(=O)/C=c1/s/c(=C(/C#N)C(=O)NCc2ccccc2)n(-c2ccccc2)c1=O,-0.262
5,Cc1cc(NC(=O)CCC(=O)N(Cc2ccco2)C(C(=O)NC2CCCCC2)c2ccccc2)no1 (stereo not drawn),-0.181
6,Cc1cccc(Nc2nnc(SCC(=O)Nc3ccccc3[N+](=O)[O-])s2)c1C,-0.242
7,Cn1c(CCNC(=O)c2ccco2)nc2cc(NC(=O)NC3CCCCC3)ccc21,0.635
8,CCOC(=O)c1ccc(NCc2nc3ccccc3n2C)cc1,-0.703
9,O=c1c2cc(N3CCOCC3)ccc2[nH]c(=S)n1CCCN1CCCC1,-0.171
10,CC1=CC(C)(C)N(C(=O)CN2C(=O)c3ccccc3C2=O)c2ccccc21,-0.18
11,COCCNC(=S)N1CCc2cc(OC)c(OC)cc2C1COc1ccc(C(C)C)cc1 (stereo not drawn),-0.275
12,CC(NC(=O)NCC1CCCO1)(C(F)(F)F)C(F)(F)F (stereo not drawn),0.483
13,Cc1ccc(S(=O)(=O)N2CCOCC2)cc1NC(=O)CSc1cccc[n+]1[O-],-0.145
14,COc1ccc(/C=C/C(=O)OCC(=O)Nc2ccc(Cl)cc2F)cc1S(=O)(=O)N1CCOCC1,-0.323
15,C/C(CC(=O)Nc1cccc(F)c1)=N\NC(=O)C(=O)NC1CCCCC1,-0.24
16,O=C(Nc1cc(Cl)ccc1Cl)c1ccc(OC(=O)c2ccco2)cc1,-0.249
17,Cc1cnc(C(=O)OCC(=O)NCCc2ccccc2)cn1,-0.972
18,COc1ccccc1CNS(=O)(=O)c1ccc2c(c1)oc(=O)n2C,-0.394
19,Cc1ccc(S(=O)(=O)CC(=O)c2ccc(C(C)(C)C)cc2)cc1,-0.39
20,Cc1ccc(C(=O)N2CC3(C(C)C)CN(C(=O)c4ccc(C)cc4)CC(C(C)C)(C2)C3=O)cc1,-0.222
21,C=CCCCOc1ccc(C(=O)O)cc1,-0.341
22,c1ccc(-c2ccc(C3=Nn4c(Cn5nnc6ccccc65)nnc4SC3)cc2)cc1,0.0434

row,Structure (SMILES),z-score
1,CCCn1c(Nc2ccc(Cl)cc2)nc2ccccc21,-0.0675
2,COc1cc2[nH]c(=S)n(Cc3ccc(C)o3)c(=O)c2cc1OC,-0.064
3,CC(C)Cc1nnc(NC(=O)CSc2nc(N)cc(=O)[nH]2)s1,-0.113
4,Cc1cc(C)n(-c2nc3ccccc3c(=O)n2OCCOc2ccccc2)n1,-0.385
5,CC(Oc1ccc2oc3ccccc3c2c1)C(=O)NC12CC3CC(CC(C3)C1)C2 (stereo not drawn),-0.213
6,CCN(CC)S(=O)(=O)c1cccc(NC(=O)c2cc3ccccc3o2)c1,0.036
7,O=C(O)CCCC(=O)N1N=C(c2c(-c3ccccc3)c3cc(Cl)ccc3[nH]c2=O)CC1c1cccs1 (stereo not drawn),-0.323
8,CCCS(=O)(=O)N1CCCC(C(=O)NCc2cccnc2)C1 (stereo not drawn),0.129
9,Cn1cc(C(=O)N/N=C/c2cccs2)c2ccccc21,-0.0725
10,Cc1ccc(C)c(-c2nnc(OCC(=O)Nc3cc(C)on3)c3ccccc23)c1,-1.13
11,COc1ccc(NC(=O)CC2C(=O)N(c3ccc(F)cc3)C(=S)N2NC(=O)c2ccccc2)cc1 (stereo not drawn),-0.285
12,CC1CCCCN1S(=O)(=O)c1ccc(NC(=O)c2ccco2)cc1 (stereo not drawn),0.19
13,CCOC(=O)CSc1nnc(-c2ccc(NS(=O)(=O)c3ccc(C)cc3)cc2)o1,-0.0463
14,O=C(CC(CC(=O)c1ccccc1)C(=O)O)c1ccccc1,0.308
15,Cc1cc(C)nc(NC(=O)/C=C/c2ccc3c(c2)OCO3)c1,-0.353
16,CCCCN(C)S(=O)(=O)c1ccc(C(=O)Nc2nnc(-c3cccs3)o2)cc1,active: 7.18
17,COc1cc(C(=O)NC2=NCCS2)cc(OC)c1OC,0.124
18,COc1cccc(-c2nn(-c3ccccc3)cc2C(=O)Nc2nccs2)c1,1.25
19,COc1cc(C)nc(Nc2nc(C)c(C(C)=O)s2)n1,0.337
20,COc1ccc(-c2c(C(F)(F)F)oc3cc(OCC(=O)Nc4ccccc4C(F)(F)F)ccc3c2=O)cc1OC,-0.166
